# Measurements from the BET-seq Pho4 binding data (Le et al. 2018).
# Some of the results follow. The energies were worked out here from pooled read counts, against the library average; single values are noisy.
# Molecular target: T1, Pho4 (S. cerevisiae) (UniProt P07270)
# T1 sequence: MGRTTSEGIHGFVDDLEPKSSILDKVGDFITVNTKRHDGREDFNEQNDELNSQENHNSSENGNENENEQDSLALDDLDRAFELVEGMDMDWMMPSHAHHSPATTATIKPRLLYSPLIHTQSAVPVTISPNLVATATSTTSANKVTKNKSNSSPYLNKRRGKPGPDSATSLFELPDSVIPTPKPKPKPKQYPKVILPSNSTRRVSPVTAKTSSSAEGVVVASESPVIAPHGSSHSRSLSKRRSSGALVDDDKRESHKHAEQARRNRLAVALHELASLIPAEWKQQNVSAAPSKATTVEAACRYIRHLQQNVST
# Assay: relative binding free energy (BET-seq); higher = weaker binding
# Details: reference: library average
row,Sequence,relative binding free energy [kcal/mol]
1,ATGTACACGTGGTGGA,-0.05
2,TATAACACGTGTAGTT,0.11
3,ATGGTCACGTGTCTGT,0.14
4,TGGGTCACGTGGCGGG,0.1
5,GTGCTCACGTGTGGTG,0.3
6,TTAATCACGTGCATGG,0.12
7,TGAGTCACGTGGTAGC,0.04
8,GAGTACACGTGAAGGG,0.21
9,TAAGTCACGTGCGAGT,0.08
10,TTTGTCACGTGGTCGC,-0.12
11,GTGTTCACGTGATGAG,0.37
12,GAAGTCACGTGTAGGT,0.31
13,GTTTACACGTGTTGGA,0.16
14,GTTCTCACGTGTTATG,0.26
15,AGAGACACGTGAGAGG,0.32
16,AGAAGCACGTGTAGTG,-0.03
17,ATGCCCACGTGGTTGG,-0.01
18,AGGGACACGTGTTTAG,0.07
19,GGATTCACGTGGAAGT,0.31
20,GGGCTCACGTGGAAAG,0.48
21,GGTTACACGTGGGAAG,0.16
22,CTTATCACGTGTGGAT,0.1
23,GGTCACACGTGTTGAT,0.26

row,Sequence,relative binding free energy [kcal/mol]
1,ATGGCCACGTGATATT,0.16
2,GTTTTCACGTGGTCTA,0.23
3,TTTCTCACGTGTAAGT,0.22
4,CGGGGCACGTGGGGTG,-0.35
5,TATGGCACGTGTGTTA,0
6,TGGGGCACGTGCAGAA,-0.18
7,TGAGACACGTGACGGT,0.18
8,ATGCTCACGTGTGTGT,0.04
9,GGGAGCACGTGAGCGT,0.16
10,AAGTCCACGTGGGGGG,-0.21
11,TATATCACGTGTATAG,0.08
12,TGGTACACGTGCTGTT,-0.05
13,CGAATCACGTGGGTTT,-0.01
14,AGTGGCACGTGAGCGG,0.01
15,AGGAGCACGTGAGGGG,0.14
16,TGGTGCACGTGGTTTA,-0.08
17,TAAGGCACGTGAGGTT,0.18
18,GGATCCACGTGAGTTG,0.37
19,TCTGACACGTGCGGGT,0.04
20,CGGGACACGTGTGATG,0.08
21,GATGTCACGTGGGTTA,0.17
22,CTTTTCACGTGATTGG,0.4
23,AGTGCCACGTGGGAAT,-0.13

row,Sequence,relative binding free energy [kcal/mol]
1,CGATGCACGTGTAATG,0.14
2,TGTGTCACGTGACTAG,0.23
3,AGTAGCACGTGTGTCG,-0.03
4,TCTTTCACGTGGCTGT,0.26
5,TATGGCACGTGGACAG,-0.07
6,AGGGTCACGTGTGAAT,0.25
7,AGTGTCACGTGTAGCG,-0.06
8,GGAAGCACGTGGTGGA,-0.13
9,GGTTACACGTGCTAGG,0.06
10,ATATGCACGTGGCGGT,-0.1
11,TTTGCCACGTGAGTGT,0.17
12,GTGAACACGTGTATGA,-0.04
13,TGACTCACGTGTTGTA,0
14,ATTGTCACGTGTTTTC,0.08
15,CCTGGCACGTGGTTGG,-0.32
16,AGGAACACGTGAGTTT,0.3
17,ATCTACACGTGTGTAT,0.11
18,AGAGGCACGTGCGCGT,-0.36
19,AAAGTCACGTGTTTAT,0.17
20,GTTTTCACGTGGGACG,0.28
21,ACGGTCACGTGGTTTT,0.09
22,ATTATCACGTGCAGTT,0.08
23,TGCTTCACGTGAGAGT,0.27

row,Sequence,relative binding free energy [kcal/mol]
1,TTACTCACGTGTCAGT,0.34
2,CTTCGCACGTGGGTGG,-0.17
3,TGTATCACGTGTGAAG,0.17
4,GGTCTCACGTGAATTT,0.38
5,GAGGGCACGTGCGTGA,-0.25
6,GGATGCACGTGATGTT,0.12
7,TGTGTCACGTGAGGGT,0.27
8,GAAGACACGTGGAGTT,0.13
9,TTGGTCACGTGCTGGA,0.07
10,GTAGCCACGTGGGGTT,-0.24
11,ATTATCACGTGTATGT,0.09
12,TTATACACGTGTTTCA,0.05
13,AATTTCACGTGGTTTC,0.36
14,GGTCGCACGTGATTGG,0.08
15,TTGATCACGTGGCGGG,0.09
16,AGATACACGTGTTTTA,0.11
17,AGCTACACGTGTGGTG,0.07
18,TTTGGCACGTGTGTTT,0
19,ATGTTCACGTGACAGT,0.32
20,CAATTCACGTGTGCGT,0.4
21,TTTAGCACGTGTGAAT,0.1
22,CTTCACACGTGTGGGG,0.03
23,GCGTGCACGTGAGAGT,0.21

row,Sequence,relative binding free energy [kcal/mol]
1,TGAAACACGTGATGTG,0.13
2,GGGTGCACGTGGACGA,-0.01
3,TGGTTCACGTGGACCT,0.29
4,GGTGACACGTGAGAGG,0.22
5,GGATACACGTGGCGGG,-0.12
6,ACTTTCACGTGGTTAG,0.14
7,CGTAGCACGTGGTGCC,0.02
8,GGATTCACGTGGTGAA,0.22
9,GGTCGCACGTGAGTAG,0.18
10,GTATACACGTGTCGTG,-0.03
11,AGATTCACGTGGAATG,0.32
12,TATGTCACGTGGTTGT,0.06
13,GGGGGCACGTGGACTT,0.05
14,GGAGACACGTGTAAGT,0.21
15,TGGCGCACGTGACTGG,-0.06
16,TCATTCACGTGTGTAA,0.21
17,AGCGTCACGTGCATGG,0.06
18,TCTTACACGTGTGTTT,0.06
19,GATTACACGTGGTTAG,-0.02
20,TATTACACGTGACGGG,0.18
21,TATTGCACGTGTATCA,0.08
22,TACTGCACGTGTTTAG,0.01
23,TTGTGCACGTGTTCTA,-0.09
